In PubChem BioAssay AID2675 (National Center for Advancing Translational Sciences (NCATS), 2010):
Out of some 280,000 compounds screened, about 100 (0.036%) were called active. The inconclusive results got no clear call from the source; some entries with a clear call stand among them for comparison. Calls follow the shape of the dose curve; as a rule, active = well fitted inhibition curve with a large enough effect in the signal ratio, with a control signal flat (not every such curve was filed as active); inconclusive = small, poorly fitted or top-dose-only effect, or effect the other way, or a change in a side signal; inactive = no such curve, though single readings can be large or run the other way; the % refers to the signal ratio. Potencies beside an inconclusive call are fits to weak or partial responses and may not hold up. “Side channel” marks fits to a control or component signal instead of the main read-out.

Molecular target: Muscleblind-like protein 1 (Homo sapiens) (UniProt Q9NR56)
Sequence of UniProt Q9NR56 (Q9NR56 whole entry, looked up): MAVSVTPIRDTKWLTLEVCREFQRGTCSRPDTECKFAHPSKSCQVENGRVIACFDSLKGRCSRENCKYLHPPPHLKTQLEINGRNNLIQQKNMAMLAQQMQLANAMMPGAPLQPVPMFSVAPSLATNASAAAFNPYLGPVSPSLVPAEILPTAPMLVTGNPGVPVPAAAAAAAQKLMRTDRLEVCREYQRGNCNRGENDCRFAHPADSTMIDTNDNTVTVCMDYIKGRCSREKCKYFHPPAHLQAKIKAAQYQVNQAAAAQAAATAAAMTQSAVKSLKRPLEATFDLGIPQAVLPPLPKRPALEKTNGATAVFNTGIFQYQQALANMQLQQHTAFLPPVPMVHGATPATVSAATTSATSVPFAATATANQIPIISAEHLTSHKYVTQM
Test: qHTS Assay for Inhibitors of MBNL1-poly(CUG) RNA binding
Settings: TR-FRET MBNL1-His/biotin-(CUG)12 binding, 665/545 ratio; series mostly up to 57.5 µM
Summary of the method: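 Compounds (final 92 nM to 58 uM) are added to His-tagged MBNL1 and biotin-(CUG)12, then terbium anti-His antibody and streptavidin-XL665 (5 nM final). After 60 min at room temperature, the 665/545 nm ratio is read.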
Potency is read from the fitted curve at half-maximal effect; tags tell the direction and shape of the fitted curve or compound fluorescence and quenching.

Compound | Potency
CCc1ccc2c(c1)C(=O)C(=O)N2CCS(=O)(=O)c1ccccc1 | inconclusive: 15.8 µM [quencher, side channel, partial curve]
O=C(N/N=C/c1ccc(OCc2cnc(Cl)s2)cc1)c1ccncc1 | inconclusive: 31.6 µM [quencher, side channel, partial curve]
C=CCn1cnc2c(c1=O)c1nc3ccccc3nc1n2/N=C/c1cc(OC)c(OC)c(OC)c1 | inconclusive: 7.94 µM [quencher, side channel, full curve, poor fit]
CC1CCCCN1C(=O)CN(C)S(=O)(=O)c1cccc2nsnc12 (stereo not drawn) | inconclusive: 15.8 µM [quencher, partial curve]
Cn1c(=O)[nH]c(=O)c2c1nc(Br)n2CCSc1nc2ccccc2o1 | inactive
C=CCN1C(c2ccc(Br)cc2)=CS/C1=C(/C#N)c1nnc(N2CCOCC2)n1-c1ccccc1 | inconclusive: 8.91 µM [quencher, side channel, single point]
Cc1nc(NCC2CCCO2)nc2c1C(=O)CC(C)(C)C2 (stereo not drawn) | inconclusive: 0.794 µM [quencher, side channel, single point]
Cc1cc(=O)n(Cc2ccc(OC(C)C)cc2)c(=S)[nH]1 | inactive
CSc1ccc(/C=N/NC(=O)CN2CCN(Cc3ccccc3)CC2)cc1 | inactive
O=C(COC(=O)CNC(=O)c1ccc(Br)o1)Nc1ccccc1OC(F)F | inactive
Cc1nccn1-c1ccc(C(F)(F)F)cc1[N+](=O)[O-] | inconclusive: 31.6 µM [quencher, side channel, partial curve]
Cc1cc(C)n(CC(=O)c2cccc([N+](=O)[O-])c2)n1 | inconclusive: 15.8 µM [quencher, side channel, partial curve]
O=C(NCC1COc2ccccc2O1)c1ccccc1 (stereo not drawn) | inactive
c1ccc2nc(SCc3cn4ccccc4n3)cnc2c1 | inconclusive: 12.6 µM [quencher, side channel, partial curve]
Cc1ccc(-c2nc3ccccc3o2)cc1NC(=O)c1ccc2c(c1)OCO2 | inactive
O=C(COc1cccnc1[N+](=O)[O-])Nc1ccc2c(c1)CCC2 | inconclusive: 3.98 µM [quencher, side channel, full curve, poor fit]
CC(Nc1[nH]c(=O)n(C)c(=O)c1N=O)c1ccccc1 (stereo not drawn) | inconclusive: 22.4 µM [quencher, side channel, partial curve]
Cc1ccc(N/C=C(\C2OC(=O)c3ccccc32)[N+](=O)[O-])c(C)c1 (stereo not drawn) | inconclusive: 31.6 µM [quencher, side channel, single point]
